Reference: US20110212845A1, “Biomarkers for predicting the sensitivity and response of protein kinase CK2-mediated diseases to CK2 Inhibitors” (priority 2009, published 2011)

Legend:
Akt-S129 phosphorylation = assay: Akt-S129 phosphorylation, CX-4945 compared with staurosporine; assay type: cell-based
A431 xenografts = assay: A431 xenografts, erlotinib and CX-4945; assay type: in vivo; conditions: for tumor growth, used alone: single agent
Source text: (§1) Erlotinib targets the epidermal growth factor receptor (EGFR) and is used to treat NSCLC and pancreatic cancer, amongst other cancer types.

AKT3 = AKT3 (Homo sapiens, UniProt Q9Y243); assay: Kinase selectivity panel, AKT3; assay type: biochemical
[1] = system: NCI-H1650 and NCI-H1975 cells; assay: Phosphorylation of Akt and rpS6, combination with erlotinib; assay type: cell-based; conditions: 10 μM CX-4945 in combination with 50 μM erlotinib
Source text: as §1

[2] = system: A431 (epidermoid carcinoma) and NCI-H2170 (lung cancer cells); assay: EGF-stimulated CK2 activity; conditions: 100 ng/ml EGF, 10 μM CX-4945; both cell types
[3] = system: multiple myeloma cell lines; assay: VEGF secretion in multiple myeloma cell lines; assay type: cell-based, human; conditions: 10 μM
CLK3 = CLK3 (Homo sapiens, UniProt P49761); assay: Kinase selectivity panel, CLK3; assay type: biochemical
UniProt P49761, sequence (P49761 whole entry): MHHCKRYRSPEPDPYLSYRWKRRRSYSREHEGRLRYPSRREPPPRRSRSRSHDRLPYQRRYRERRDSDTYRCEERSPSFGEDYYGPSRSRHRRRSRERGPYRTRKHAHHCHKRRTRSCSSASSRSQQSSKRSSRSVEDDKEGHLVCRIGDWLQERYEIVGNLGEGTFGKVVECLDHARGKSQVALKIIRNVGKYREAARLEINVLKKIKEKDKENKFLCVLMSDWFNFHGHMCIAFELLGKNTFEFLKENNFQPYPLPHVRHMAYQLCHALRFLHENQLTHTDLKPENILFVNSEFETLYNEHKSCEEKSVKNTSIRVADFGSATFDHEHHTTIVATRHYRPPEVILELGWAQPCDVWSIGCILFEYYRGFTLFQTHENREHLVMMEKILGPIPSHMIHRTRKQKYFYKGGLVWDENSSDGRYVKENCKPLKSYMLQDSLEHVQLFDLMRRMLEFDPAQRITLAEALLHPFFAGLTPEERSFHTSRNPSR

PI3K (p110δ/p85α) = PI3K (p110δ/p85α) (Homo sapiens, UniProt O00329); assay: Kinase selectivity panel, PI3K (p110δ/p85α); assay type: biochemical
UniProt O00329, sequence (O00329 whole entry): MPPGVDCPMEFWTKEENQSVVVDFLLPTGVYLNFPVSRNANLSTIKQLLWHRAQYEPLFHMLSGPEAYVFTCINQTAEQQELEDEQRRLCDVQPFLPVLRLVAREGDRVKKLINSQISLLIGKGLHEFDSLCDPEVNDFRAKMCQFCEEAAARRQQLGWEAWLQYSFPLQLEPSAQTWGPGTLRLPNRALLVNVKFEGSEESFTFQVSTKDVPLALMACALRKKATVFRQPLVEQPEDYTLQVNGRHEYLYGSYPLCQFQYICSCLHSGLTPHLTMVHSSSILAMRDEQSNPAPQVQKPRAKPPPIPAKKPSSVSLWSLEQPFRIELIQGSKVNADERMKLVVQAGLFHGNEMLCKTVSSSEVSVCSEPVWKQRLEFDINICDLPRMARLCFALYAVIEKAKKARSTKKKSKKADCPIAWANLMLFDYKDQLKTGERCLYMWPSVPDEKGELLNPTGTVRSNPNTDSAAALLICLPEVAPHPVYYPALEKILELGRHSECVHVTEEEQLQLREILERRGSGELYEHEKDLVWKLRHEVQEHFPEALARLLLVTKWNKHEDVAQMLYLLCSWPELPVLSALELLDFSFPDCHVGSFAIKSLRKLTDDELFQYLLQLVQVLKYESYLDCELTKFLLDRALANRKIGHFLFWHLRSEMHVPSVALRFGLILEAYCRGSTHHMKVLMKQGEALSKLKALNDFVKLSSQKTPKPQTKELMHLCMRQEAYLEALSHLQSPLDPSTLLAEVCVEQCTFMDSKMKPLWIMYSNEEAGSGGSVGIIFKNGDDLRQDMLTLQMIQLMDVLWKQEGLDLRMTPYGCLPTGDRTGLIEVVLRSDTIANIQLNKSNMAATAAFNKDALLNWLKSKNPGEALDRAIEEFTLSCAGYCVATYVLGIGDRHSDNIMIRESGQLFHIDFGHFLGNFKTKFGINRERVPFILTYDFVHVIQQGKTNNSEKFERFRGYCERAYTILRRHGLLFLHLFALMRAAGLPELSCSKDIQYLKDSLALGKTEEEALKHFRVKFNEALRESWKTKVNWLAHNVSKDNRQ
UniProt O00329, sequence (P27986 whole entry partner): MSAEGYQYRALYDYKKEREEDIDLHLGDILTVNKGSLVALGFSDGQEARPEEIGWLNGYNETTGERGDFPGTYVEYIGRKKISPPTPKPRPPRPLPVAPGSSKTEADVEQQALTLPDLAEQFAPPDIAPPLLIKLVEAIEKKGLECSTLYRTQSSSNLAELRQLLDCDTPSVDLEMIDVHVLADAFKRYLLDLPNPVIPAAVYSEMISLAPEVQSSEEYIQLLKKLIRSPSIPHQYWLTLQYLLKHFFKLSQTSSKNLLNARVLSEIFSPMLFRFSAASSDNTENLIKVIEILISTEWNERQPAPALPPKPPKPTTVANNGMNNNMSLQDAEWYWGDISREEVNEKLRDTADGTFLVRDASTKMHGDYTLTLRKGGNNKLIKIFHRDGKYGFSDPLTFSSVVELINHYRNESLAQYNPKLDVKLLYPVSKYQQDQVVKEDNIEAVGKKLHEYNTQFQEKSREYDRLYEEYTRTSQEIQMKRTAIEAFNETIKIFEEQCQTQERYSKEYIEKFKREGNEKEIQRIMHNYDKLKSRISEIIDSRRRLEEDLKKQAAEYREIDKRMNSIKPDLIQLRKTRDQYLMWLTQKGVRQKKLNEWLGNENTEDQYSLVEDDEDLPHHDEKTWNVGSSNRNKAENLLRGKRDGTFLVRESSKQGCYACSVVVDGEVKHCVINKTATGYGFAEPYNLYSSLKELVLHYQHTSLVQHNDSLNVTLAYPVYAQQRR

PDK1 = target: T1, PDK1 (Homo sapiens, UniProt O15530); assay: Kinase selectivity panel, PDK1; assay type: biochemical
T1 sequence (O15530 1-556): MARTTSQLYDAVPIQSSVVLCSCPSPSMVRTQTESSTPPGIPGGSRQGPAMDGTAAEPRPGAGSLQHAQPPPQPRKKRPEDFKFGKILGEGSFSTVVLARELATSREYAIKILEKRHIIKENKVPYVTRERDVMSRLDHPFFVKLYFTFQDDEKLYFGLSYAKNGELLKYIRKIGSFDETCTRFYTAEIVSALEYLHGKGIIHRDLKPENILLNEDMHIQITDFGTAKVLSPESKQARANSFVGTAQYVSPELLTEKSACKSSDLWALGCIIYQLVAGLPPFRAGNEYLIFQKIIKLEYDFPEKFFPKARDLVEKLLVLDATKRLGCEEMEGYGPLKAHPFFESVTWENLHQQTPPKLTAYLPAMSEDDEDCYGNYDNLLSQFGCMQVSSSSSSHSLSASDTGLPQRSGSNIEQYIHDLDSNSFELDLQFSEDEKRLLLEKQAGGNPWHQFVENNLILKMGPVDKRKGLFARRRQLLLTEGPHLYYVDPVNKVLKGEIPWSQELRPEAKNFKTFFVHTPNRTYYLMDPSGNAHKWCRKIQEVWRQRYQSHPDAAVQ

A2780 xenografts = assay: A2780 ovarian cancer xenografts, combination with gemcitabine; assay type: in vivo; conditions: gemcitabine 60 mg/kg and CX-4945 100 mg/kg
AKT1 = AKT1 (Homo sapiens, UniProt P31749); assay: Kinase selectivity panel, AKT1; assay type: biochemical
UniProt P31749, sequence (P31749 whole entry): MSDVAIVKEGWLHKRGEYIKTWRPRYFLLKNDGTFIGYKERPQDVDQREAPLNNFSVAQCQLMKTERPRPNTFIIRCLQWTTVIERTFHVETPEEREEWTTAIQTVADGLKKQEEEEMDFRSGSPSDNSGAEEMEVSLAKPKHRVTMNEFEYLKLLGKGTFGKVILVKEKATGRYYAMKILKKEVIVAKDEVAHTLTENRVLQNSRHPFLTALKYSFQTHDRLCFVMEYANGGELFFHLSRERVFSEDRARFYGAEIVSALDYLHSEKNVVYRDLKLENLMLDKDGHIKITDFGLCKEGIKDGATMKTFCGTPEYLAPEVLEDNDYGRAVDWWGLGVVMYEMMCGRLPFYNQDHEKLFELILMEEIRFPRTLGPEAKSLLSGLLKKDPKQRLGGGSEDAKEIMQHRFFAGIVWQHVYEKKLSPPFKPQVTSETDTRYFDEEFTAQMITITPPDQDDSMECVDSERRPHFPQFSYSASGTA

[4] = system: BxPC3 pancreatic cancer xenografts; assay: BxPC3 pancreatic cancer xenografts, tolerability; assay type: in vivo; conditions: 12.5-75 mg/kg bid over 35 days
[5] = system: U266 multiple myeloma cells; assay: IL-6 production in U266 multiple myeloma cells; assay type: cell-based, human
PI3K (p110β/p85α) = PI3K (p110β/p85α) (Homo sapiens, UniProt P42338); assay: Kinase selectivity panel, PI3K (p110β/p85α); assay type: biochemical
UniProt P42338, sequence (P42338 whole entry): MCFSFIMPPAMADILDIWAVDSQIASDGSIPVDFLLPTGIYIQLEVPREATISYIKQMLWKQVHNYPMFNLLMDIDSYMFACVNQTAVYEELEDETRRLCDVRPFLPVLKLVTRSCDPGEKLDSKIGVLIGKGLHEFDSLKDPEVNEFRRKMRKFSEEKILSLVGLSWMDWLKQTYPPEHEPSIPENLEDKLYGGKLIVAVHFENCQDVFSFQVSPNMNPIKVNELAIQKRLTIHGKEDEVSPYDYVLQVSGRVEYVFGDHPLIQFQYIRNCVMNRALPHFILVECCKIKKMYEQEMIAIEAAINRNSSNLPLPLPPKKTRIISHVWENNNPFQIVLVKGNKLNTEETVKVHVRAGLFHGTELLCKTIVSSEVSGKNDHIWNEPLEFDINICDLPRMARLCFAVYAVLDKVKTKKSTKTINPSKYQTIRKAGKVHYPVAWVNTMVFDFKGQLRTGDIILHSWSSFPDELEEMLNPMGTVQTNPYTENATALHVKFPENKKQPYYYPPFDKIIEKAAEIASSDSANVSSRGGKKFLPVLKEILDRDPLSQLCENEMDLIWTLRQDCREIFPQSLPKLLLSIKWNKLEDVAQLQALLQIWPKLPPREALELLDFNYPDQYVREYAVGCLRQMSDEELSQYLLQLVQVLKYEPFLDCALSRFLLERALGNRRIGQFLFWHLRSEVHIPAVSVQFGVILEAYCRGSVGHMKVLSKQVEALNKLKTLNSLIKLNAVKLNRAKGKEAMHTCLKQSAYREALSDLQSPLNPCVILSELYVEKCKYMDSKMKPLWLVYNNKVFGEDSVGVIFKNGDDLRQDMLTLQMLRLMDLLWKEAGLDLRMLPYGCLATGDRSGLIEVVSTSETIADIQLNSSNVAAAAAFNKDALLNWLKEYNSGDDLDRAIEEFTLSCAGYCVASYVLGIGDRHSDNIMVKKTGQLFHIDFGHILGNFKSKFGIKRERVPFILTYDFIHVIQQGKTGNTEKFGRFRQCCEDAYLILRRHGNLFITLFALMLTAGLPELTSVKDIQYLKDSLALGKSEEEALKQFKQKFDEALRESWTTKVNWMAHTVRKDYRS
UniProt P42338, sequence (P27986 whole entry partner): as the sequence (P27986 whole entry partner) above

p70S6K = p70S6K (Homo sapiens, UniProt P23443); assay: Kinase selectivity panel, p70S6K; assay type: biochemical
UniProt P23443, sequence (P23443 whole entry): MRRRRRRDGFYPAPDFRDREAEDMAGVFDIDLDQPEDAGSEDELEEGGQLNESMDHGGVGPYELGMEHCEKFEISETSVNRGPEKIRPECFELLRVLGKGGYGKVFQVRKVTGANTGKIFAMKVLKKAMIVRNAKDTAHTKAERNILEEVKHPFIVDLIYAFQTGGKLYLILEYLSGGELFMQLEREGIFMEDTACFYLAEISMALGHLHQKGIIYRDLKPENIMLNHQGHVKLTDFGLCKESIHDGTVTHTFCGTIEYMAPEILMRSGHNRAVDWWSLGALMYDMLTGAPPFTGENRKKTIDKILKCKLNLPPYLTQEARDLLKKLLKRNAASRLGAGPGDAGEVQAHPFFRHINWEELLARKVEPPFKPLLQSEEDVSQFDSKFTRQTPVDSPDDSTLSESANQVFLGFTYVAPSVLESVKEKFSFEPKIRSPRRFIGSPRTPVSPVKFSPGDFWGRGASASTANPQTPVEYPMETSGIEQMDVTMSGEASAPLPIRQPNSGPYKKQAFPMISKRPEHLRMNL

mTOR = mTOR (Homo sapiens, UniProt P42345); assay: Kinase selectivity panel, mTOR; assay type: biochemical
AKT2 = AKT2 (Homo sapiens, UniProt P31751); assay: Kinase selectivity panel, AKT2; assay type: biochemical
UniProt P31751, sequence (P31751 whole entry): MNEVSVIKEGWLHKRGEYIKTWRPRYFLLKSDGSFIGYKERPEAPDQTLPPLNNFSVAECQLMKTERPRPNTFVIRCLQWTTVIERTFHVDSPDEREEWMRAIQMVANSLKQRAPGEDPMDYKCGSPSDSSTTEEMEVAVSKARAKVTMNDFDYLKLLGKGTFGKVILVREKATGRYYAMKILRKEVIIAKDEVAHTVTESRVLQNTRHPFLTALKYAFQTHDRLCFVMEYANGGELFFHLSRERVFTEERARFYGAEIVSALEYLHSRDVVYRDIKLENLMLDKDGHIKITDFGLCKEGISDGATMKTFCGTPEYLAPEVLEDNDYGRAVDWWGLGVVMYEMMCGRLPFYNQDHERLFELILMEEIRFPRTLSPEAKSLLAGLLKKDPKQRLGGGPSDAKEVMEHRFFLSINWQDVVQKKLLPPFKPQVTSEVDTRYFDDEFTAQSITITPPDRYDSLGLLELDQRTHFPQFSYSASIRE

[6] = system: A2780 ovarian cancer cells; assay: Comet assay of gemcitabine-induced DNA damage; assay type: cell-based; conditions: in combination with gemcitabine
PI3K (p120γ) = PI3K (p120γ) (Homo sapiens, UniProt P48736); assay: Kinase selectivity panel, PI3K (p120γ); assay type: biochemical

Q: `CN[C@@H]1C[C@H]2O[C@@](C)([C@@H]1OC)n1c3ccccc3c3c4c(c5c6ccccc6n2c5c31)C(=O)NC4` [STS, staurosporine, reference compound] was tested. Which “phosphorylation of Akt-S129” value (Akt-S129 phosphorylation) did it give?
A: Its value is “did not affect the phosphorylation”.

Q: How did the “tumor growth, used alone” value (A431 xenografts) turn out when `C#Cc1cccc(Nc2ncnc3cc(OCCOC)c(OCCOC)cc23)c1` [erlotinib, reference compound] was run?
A: The value was “significant inhibition of tumor growth”.

Q: Which results are given for `O=C(O)c1ccc2c(c1)nc(Nc1cccc(Cl)c1)c1ccncc12` [CX-4945]?
A: phosphorylation of Akt-S129 (Akt-S129 phosphorylation): inhibited phosphorylation of Akt-S129; IC50 (AKT3): > 500 nM; phosphorylation of Akt and rpS6 [1]: reduces the phosphorylation of Akt and rpS6; EGF-stimulated CK2 activity (p-Akt S129, p-Akt S473) [2]: significantly inhibit EGF-stimulated CK2 activity; secretion of VEGF [3]: reduced the secretion of VEGF; IC50 (CLK3): 41 nM; IC50 (PI3K (p110δ/p85α)): > 500 nM; IC50 (PDK1): > 500 nM; anti-tumor activity of the combination with gemcitabine (A2780 xenografts): synergistic anti-tumor activity; IC50 (AKT1): > 500 nM; tolerability [4]: well tolerated; production of IL-6 [5]: reduce the production of IL-6; anti-tumor activity of the combination with erlotinib (A431 xenografts; erlotinib and CX-4945 combined): synergistic anti-tumor activity; tumor growth, used alone (A431 xenografts): significant inhibition of tumor growth; IC50 (PI3K (p110β/p85α)): > 500 nM; IC50 (p70S6K): > 500 nM; IC50 (mTOR): > 500 nM; IC50 (AKT2): > 500 nM; gemcitabine induced DNA damage (comet assay) [6]: increase gemcitabine induced DNA damage; IC50 (PI3K (p120γ)): > 500 nM
